Test results as given in the supplement of paper PMC8728848.
This is one part of the list.

Experiments:
Experiment in all cases: glycan array binding signal (z-score within array); higher = stronger binding
Conditions in all cases: glycan notation: IUPAC condensed, linker removed
[1] = target: Gal(b1-4)GlcNAc(b1-6)GalNAc
Summary of the method: (§1)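 Columns mapping to the same glycan were averaged after glycan names were converted to IUPAC-condensed notation. The data come from 3228 arrays in the Consortium for Functional Glycomics database, limited to those with an available protein sequence. Binding is reported as a within-array Z-score averaged across arrays of one protein sequence and across linkers.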

[2] = target: Gal(b1-4)GlcNAc(b1-6)[Gal(b1-3)]GalNAc
Summary of the method: as §1

[3] = target: Gal(b1-4)GlcNAc(b1-6)[Gal(b1-4)GlcNAc(b1-3)]GalNAc
Summary of the method: as §1

Gal(b1-4)GlcNAc6P = target: Gal(b1-4)GlcNAc6P
Summary of the method: as §1

Gal(b1-6)Gal = target: Gal(b1-6)Gal
Summary of the method: as §1

Gal3S(b1-3)GalNAc = target: Gal3S(b1-3)GalNAc
Summary of the method: as §1

Gal3S(b1-3)GlcNAc = target: Gal3S(b1-3)GlcNAc
Summary of the method: as §1

[4] = target: Gal3S(b1-3)[Fuc(a1-4)]GlcNAc
Summary of the method: as §1

Gal3S(b1-4)Glc = target: Gal3S(b1-4)Glc
Summary of the method: as §1

Gal3S(b1-4)Glc6S = target: Gal3S(b1-4)Glc6S
Summary of the method: as §1

Gal3S(b1-4)GlcNAc = target: Gal3S(b1-4)GlcNAc
Summary of the method: as §1

[5] = target: Gal3S(b1-4)[Fuc(a1-3)]Glc6S
Summary of the method: as §1

[6] = target: Gal3S(b1-4)[Fuc(a1-3)]GlcNAc
Summary of the method: as §1

[7] = target: Gal3S(b1-4)[Fuc(a1-3)]GlcNAc6S
Summary of the method: as §1

Gal3S4S(b1-4)GlcNAc = target: Gal3S4S(b1-4)GlcNAc
Summary of the method: as §1

Gal3S6S(b1-4)GlcNAc = target: Gal3S6S(b1-4)GlcNAc
Summary of the method: as §1

Gal3S6S(b1-4)GlcNAc6S = target: Gal3S6S(b1-4)GlcNAc6S
Summary of the method: as §1

Gal4S(b1-4)GlcNAc = target: Gal4S(b1-4)GlcNAc
Summary of the method: as §1

Gal4S6S(b1-4)GlcNAc = target: Gal4S6S(b1-4)GlcNAc
Summary of the method: as §1

Gal6P(b1-4)GlcNAc = target: Gal6P(b1-4)GlcNAc
Summary of the method: as §1

Gal6S(b1-3)GlcNAc = target: Gal6S(b1-3)GlcNAc
Summary of the method: as §1

Gal6S(b1-3)GlcNAc6S = target: Gal6S(b1-3)GlcNAc6S
Summary of the method: as §1

Gal6S(b1-4)Glc = target: Gal6S(b1-4)Glc
Summary of the method: as §1

Gal6S(b1-4)Glc6S = target: Gal6S(b1-4)Glc6S
Summary of the method: as §1

Gal6S(b1-4)GlcNAc = target: Gal6S(b1-4)GlcNAc
Summary of the method: as §1

Gal6S(b1-4)GlcNAc6S = target: Gal6S(b1-4)GlcNAc6S
Summary of the method: as §1

GalNAc(a1-3)Gal = target: GalNAc(a1-3)Gal
Summary of the method: as §1

GalNAc(a1-3)GalNAc = target: GalNAc(a1-3)GalNAc
Summary of the method: as §1

[8] = target: GalNAc(a1-3)GalNAc(b1-3)Gal(a1-4)Gal(b1-4)Glc
Summary of the method: as §1

[9] = target: GalNAc(a1-3)GalNAc(b1-3)Gal(a1-4)Gal(b1-4)GlcNAc
Summary of the method: as §1

GalNAc(b1-3)Gal = target: GalNAc(b1-3)Gal
Summary of the method: as §1

[10] = target: GalNAc(b1-3)Gal(a1-4)Gal(b1-4)GlcNAc
Summary of the method: as §1

[11] = target: GalNAc(b1-3)Gal(a1-4)Gal(b1-4)GlcNAc(b1-3)Gal(b1-4)Glc
Summary of the method: as §1

[12] = target: GalNAc(b1-3)Gal(a1-6)Gal(b1-4)Glc
Summary of the method: as §1

GalNAc(b1-3)GalNAc = target: GalNAc(b1-3)GalNAc
Summary of the method: as §1

GalNAc(b1-3)GlcNAc = target: GalNAc(b1-3)GlcNAc
Summary of the method: as §1

GalNAc(b1-4)Gal(b1-4)Glc = target: GalNAc(b1-4)Gal(b1-4)Glc
Summary of the method: as §1

GalNAc(b1-4)GlcNAc = target: GalNAc(b1-4)GlcNAc
Summary of the method: as §1

B1: PX9937J-pdi-523-26-523 (Parabacteroides distasonis) (protein)
chain: EPVSSISDANYWKSPDLFKAFNIGLHGLLRSQSSYNIFVLGEPRSDIYGDQPFGGEATQGVERFSYNTINAEFTGISNFANFYTTLNQINLMIRRTNETDLLGEAEKNYYLGQAYGLRAYIYFHLLRSWGDVIITTEPTLGSELDISHLDKAASPASEVMDLIKKDIDASEKAFGGDYSYKQGKCYWSKPATLMLKGEVYLWSGRQMGGGTGDYTVAKTALQDLQQNGNLKLQEKFTDVFSFNNKENSEMIFALHSGKEDDFMMWRDYNWRNNMVPQREYMAGYCDETGTPFLEIPGYNLQGLMRYQVKKDHYLKSFREGDTRLKGTLKAVYKKHEDGTLEYIAPIQYKFQGTTLEGSNERSWYDDYPIYRYADALLLLAEAKALLGEDPSTEINAVRERAYGSEYFNAHKNEVAYPNDKGSFYNDNPFEAGDENVMEAILKERLREFFFEGKRWYDLRRFGKDYVLKYTTAQESRLLWPINEGALTNNPALKQTPGY
In the case of B1, the “glycan array binding signal (z-score)” value [1] is reported as 0.137, the “glycan array binding signal (z-score)” value [2] is reported as -0.514 and the “glycan array binding signal (z-score)” value [3] is reported as -0.149. The “glycan array binding signal (z-score)” value (Gal(b1-4)GlcNAc6P) was -0.265, the “glycan array binding signal (z-score)” value (Gal(b1-6)Gal) was 0.433 and the “glycan array binding signal (z-score)” value (Gal3S(b1-3)GalNAc) was -0.339. The “glycan array binding signal (z-score)” value (Gal3S(b1-3)GlcNAc) was 0.47, the “glycan array binding signal (z-score)” value [4] was 0.136 and the “glycan array binding signal (z-score)” value (Gal3S(b1-4)Glc) was -0.096. The “glycan array binding signal (z-score)” value (Gal3S(b1-4)Glc6S) was -0.212, the “glycan array binding signal (z-score)” value (Gal3S(b1-4)GlcNAc) was -0.432 and the “glycan array binding signal (z-score)” value [5] was 0.076. The “glycan array binding signal (z-score)” value [6] was -0.159, the “glycan array binding signal (z-score)” value [7] was 0.348 and the “glycan array binding signal (z-score)” value (Gal3S4S(b1-4)GlcNAc) was -0.379. For the same binder, the “glycan array binding signal (z-score)” value (Gal3S6S(b1-4)GlcNAc) was 0.142, the “glycan array binding signal (z-score)” value (Gal3S6S(b1-4)GlcNAc6S) was 0.587 and the “glycan array binding signal (z-score)” value (Gal4S(b1-4)GlcNAc) was 0.407. The “glycan array binding signal (z-score)” value (Gal4S6S(b1-4)GlcNAc) was -0.181, the “glycan array binding signal (z-score)” value (Gal6P(b1-4)GlcNAc) was -0.292 and the “glycan array binding signal (z-score)” value (Gal6S(b1-3)GlcNAc) was 1.08. For the same binder, the “glycan array binding signal (z-score)” value (Gal6S(b1-3)GlcNAc6S) was 0.324, the “glycan array binding signal (z-score)” value (Gal6S(b1-4)Glc) was -0.258 and the “glycan array binding signal (z-score)” value (Gal6S(b1-4)Glc6S) was -0.163. For the same binder, the “glycan array binding signal (z-score)” value (Gal6S(b1-4)GlcNAc) was 0.696, the “glycan array binding signal (z-score)” value (Gal6S(b1-4)GlcNAc6S) was 0.691 and the “glycan array binding signal (z-score)” value (GalNAc(a1-3)Gal) was -0.127. For the same binder, the “glycan array binding signal (z-score)” value (GalNAc(a1-3)GalNAc) was -0.541, the “glycan array binding signal (z-score)” value [8] was -0.314 and the “glycan array binding signal (z-score)” value [9] was -1.03. The “glycan array binding signal (z-score)” value (GalNAc(b1-3)Gal) was -0.506, the “glycan array binding signal (z-score)” value [10] was -0.576 and the “glycan array binding signal (z-score)” value [11] was -0.494. For the same binder, the “glycan array binding signal (z-score)” value [12] was -0.319, the “glycan array binding signal (z-score)” value (GalNAc(b1-3)GalNAc) was -0.55 and the “glycan array binding signal (z-score)” value (GalNAc(b1-3)GlcNAc) was -0.008. For the same binder, the “glycan array binding signal (z-score)” value (GalNAc(b1-4)Gal(b1-4)Glc) was 0.163 and the “glycan array binding signal (z-score)” value (GalNAc(b1-4)GlcNAc) was -0.223.
